According to paper PMC2830818 (The Journal of neuroscience : the official journal of the …, 2010):

Legend:
Test in all cases: co-IP
[1] = target: T1, recombinant FKBP51 F130A (UniProt Q13451 1-457, F130A)
T1 sequence (looked up): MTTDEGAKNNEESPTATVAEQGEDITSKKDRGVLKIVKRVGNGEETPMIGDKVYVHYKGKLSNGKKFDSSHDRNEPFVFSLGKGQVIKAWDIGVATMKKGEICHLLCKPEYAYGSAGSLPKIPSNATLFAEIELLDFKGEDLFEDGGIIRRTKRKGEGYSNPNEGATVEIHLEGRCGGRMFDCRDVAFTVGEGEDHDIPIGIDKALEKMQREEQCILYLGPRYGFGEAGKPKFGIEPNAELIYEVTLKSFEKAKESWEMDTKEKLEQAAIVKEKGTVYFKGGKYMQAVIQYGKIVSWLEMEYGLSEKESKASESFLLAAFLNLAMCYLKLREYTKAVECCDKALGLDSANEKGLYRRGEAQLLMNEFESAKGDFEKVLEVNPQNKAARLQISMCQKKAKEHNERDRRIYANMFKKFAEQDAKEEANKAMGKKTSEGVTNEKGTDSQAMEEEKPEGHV

[2] = target: T2, recombinant wild-type FKBP51 (UniProt Q13451 1-457)
T2 sequence (looked up): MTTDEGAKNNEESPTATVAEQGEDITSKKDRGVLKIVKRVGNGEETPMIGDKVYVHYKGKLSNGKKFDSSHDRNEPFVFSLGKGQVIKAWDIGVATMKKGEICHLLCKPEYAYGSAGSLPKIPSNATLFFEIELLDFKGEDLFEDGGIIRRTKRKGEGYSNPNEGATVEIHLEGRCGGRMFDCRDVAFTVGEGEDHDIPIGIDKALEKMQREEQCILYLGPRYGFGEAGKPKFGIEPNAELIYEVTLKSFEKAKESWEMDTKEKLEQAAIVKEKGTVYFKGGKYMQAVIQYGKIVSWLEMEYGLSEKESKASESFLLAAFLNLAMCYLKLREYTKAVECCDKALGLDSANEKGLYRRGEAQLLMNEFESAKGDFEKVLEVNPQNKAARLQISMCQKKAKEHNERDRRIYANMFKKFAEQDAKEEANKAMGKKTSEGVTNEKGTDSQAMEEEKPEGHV

[3] = target: T3, recombinant FKBP51 W90A (UniProt Q13451 1-457, W90A)
T3 sequence (looked up): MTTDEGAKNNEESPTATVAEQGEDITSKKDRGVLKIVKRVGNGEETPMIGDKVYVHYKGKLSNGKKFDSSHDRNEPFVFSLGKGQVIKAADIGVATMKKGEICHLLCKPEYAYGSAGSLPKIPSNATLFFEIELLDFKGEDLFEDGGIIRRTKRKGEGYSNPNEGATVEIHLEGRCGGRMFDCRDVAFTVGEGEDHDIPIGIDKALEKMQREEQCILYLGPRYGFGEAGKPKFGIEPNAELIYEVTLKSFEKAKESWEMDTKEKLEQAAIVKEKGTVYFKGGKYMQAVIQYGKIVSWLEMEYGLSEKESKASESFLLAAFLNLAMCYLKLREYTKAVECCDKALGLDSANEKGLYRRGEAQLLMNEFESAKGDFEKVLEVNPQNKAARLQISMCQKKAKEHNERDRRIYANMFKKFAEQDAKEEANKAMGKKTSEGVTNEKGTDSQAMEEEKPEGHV

- binding result [1]: binds
- binding result [2]: binds
- binding result [3]: binds
B1: recombinant wildtype 4R0N tau (natural protein)
chain: not shown
